Experimental data: PMC4336329 (PLoS ONE, 2015)
Screen size: about 310,000 compounds; about 2,200 (0.71%) showed an effect of 50% or more. Effects have a minus sign here. This is one part of the list.

target: human ether-à-go-go-related gene (hERG) potassium channel (human, UniProt Q12809); assay: primary screen, population patch clamp on CHO cells stably expressing hERG
Sequence (Q12809 whole entry, looked up): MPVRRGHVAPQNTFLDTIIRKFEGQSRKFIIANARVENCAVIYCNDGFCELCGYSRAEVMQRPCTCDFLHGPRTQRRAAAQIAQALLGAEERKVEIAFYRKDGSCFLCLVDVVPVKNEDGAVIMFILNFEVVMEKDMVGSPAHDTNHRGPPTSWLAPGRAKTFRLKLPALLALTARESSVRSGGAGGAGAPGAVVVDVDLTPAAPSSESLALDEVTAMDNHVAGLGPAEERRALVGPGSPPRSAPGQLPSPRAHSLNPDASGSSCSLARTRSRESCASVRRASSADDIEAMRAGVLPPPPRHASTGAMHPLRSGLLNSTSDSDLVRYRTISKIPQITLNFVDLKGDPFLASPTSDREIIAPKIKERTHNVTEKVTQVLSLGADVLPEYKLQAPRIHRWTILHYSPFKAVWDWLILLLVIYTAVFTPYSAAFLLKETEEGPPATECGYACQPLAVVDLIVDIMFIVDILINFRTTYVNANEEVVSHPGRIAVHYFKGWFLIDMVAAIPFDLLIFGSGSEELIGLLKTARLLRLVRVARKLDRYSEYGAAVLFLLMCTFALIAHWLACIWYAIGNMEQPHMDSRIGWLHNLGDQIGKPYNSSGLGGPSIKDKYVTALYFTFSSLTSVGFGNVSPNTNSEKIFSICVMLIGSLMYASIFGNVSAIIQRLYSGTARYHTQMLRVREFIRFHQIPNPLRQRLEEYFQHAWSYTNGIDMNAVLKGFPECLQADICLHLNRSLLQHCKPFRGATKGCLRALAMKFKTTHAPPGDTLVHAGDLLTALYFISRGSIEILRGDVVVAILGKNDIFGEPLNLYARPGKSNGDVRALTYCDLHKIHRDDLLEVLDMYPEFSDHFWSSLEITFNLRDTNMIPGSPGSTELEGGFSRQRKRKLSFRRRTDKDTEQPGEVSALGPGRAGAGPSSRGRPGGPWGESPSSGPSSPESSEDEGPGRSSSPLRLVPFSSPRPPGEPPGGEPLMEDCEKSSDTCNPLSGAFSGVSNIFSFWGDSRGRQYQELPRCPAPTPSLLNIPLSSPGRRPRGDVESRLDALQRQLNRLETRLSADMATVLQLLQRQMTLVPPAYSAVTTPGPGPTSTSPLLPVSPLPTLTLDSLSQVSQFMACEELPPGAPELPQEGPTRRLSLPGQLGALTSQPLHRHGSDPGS

SMILES	hERG current change (%, negative = inhibition) at 1uM
CO/N=C/NC(=O)NOCc1c(Cl)cccc1Cl	12.6%
COC(=O)c1c2[n+](cc3cc(OC)c(OC)cc13)CCc1cc(OC)c(OC)cc1-2.[O-][Cl+3]([O-])([O-])[O-]	17.3%
CCN(CC)CC.COc1ccc(-n2c(=S)[nH]c3c(sc(=S)n3-c3ccccc3)c2=O)c(OC)c1	8.81%
O=C(Nc1ccc2nc(-c3cccnc3)[nH]c2c1)c1ccccc1F	13.7%
Cc1nnsc1-c1nnc(SCC(=O)c2ccccc2)n1C1CC1	11.6%
COc1cc(C(=O)NC(C(=O)Nc2cccc(C(C)=O)c2)C(C)C)cc(OC)c1OC (stereo not drawn)	7.48%
CCOc1ccc(NC(=S)NCc2ccco2)cc1	8.51%
Cc1ccc(C(=O)N/N=c2\sc3ccccc3n2C)cc1	7.83%
CCOc1ccc(Nc2oc(-c3ccc(Cl)cc3)nc2C#N)cc1	12.9%
Cc1ccc(C(=O)Nc2cccc3cccnc23)cc1C	15.1%
CCOC(=O)C1C(=O)C=C(Nc2ccccc2F)CC1c1ccccc1 (stereo not drawn)	10.3%
COc1ccc2[nH]c3nc(SCC(=O)NC4CC4)nnc3c2c1	4.99%
CC(Sc1ccccc1)C(=O)N/N=C/c1cccnc1 (stereo not drawn)	10.7%
CCN(CC)C(=O)C1=C(C)NC(=S)NC1c1cn(-c2ccccc2)nc1-c1ccc(Cl)cc1 (stereo not drawn)	-9.26%
Cc1c(Cl)cccc1NC(=S)NCCN1CCOCC1	14.5%
CCc1ccc(NC(=O)COC(=O)c2cccs2)cc1	18.6%
COC(=O)c1ccc(OCC(=O)NC2CCCCCC2)cc1	11.3%
C/C(=N\NC(=O)CO/N=C(\C)c1cccs1)c1ccc(N)cc1	10.8%
COc1ccc(C2N3CC4(C)CN2CC(C)(C3)C4)cc1OC (stereo not drawn)	10.8%

SMILES	hERG current change (%, negative = inhibition) at 1uM
COc1ccc2ccccc2c1CNCCCN1CCOCC1.Cl	9.7%
C/C(=N\Nc1nc(C)cc(-c2ccccc2)n1)c1cccc(N)c1	18.3%
C#CCOCCOCCOCCNc1nc(N2CCN(C(=O)[C@H]([C@@H](C)CC)n3cc([C@@H](N)CC(C)C)nn3)CC2)nc(N2CCN(C(=O)[C@H](CCCCN)n3cc([C@@H](N)CC(C)C)nn3)CC2)n1.Cl	-5%
Cn1c2ccccc2c2cc([N+](=O)[O-])ccc21	-4.74%
CC(C)NC(=O)c1cc(-c2cccs2)nc2ccccc12	11.1%
COCCNC(=O)CN1CCC(NC(=O)c2ccco2)CC1	7.49%
O=C(Cc1n[nH]c(=O)[nH]c1=O)N/N=C/c1c(O)ccc2ccccc12	17.8%
CC(C)CNC(=O)CCCc1c[nH]c2ccccc12.O=C(O)C(=O)O	13.6%
C=CCn1c(N2CCOCC2)nc2c1c(=O)[nH]c(=O)n2C	8.73%
O=S(=O)(c1ccc(F)c(Cl)c1)N1CCN(C/C=C/c2ccccc2)CC1	14.7%
CCOC(=O)CSc1nc(N)c(C#N)c(-c2ccc(OC)cc2)c1C#N	14.9%
COCCNC(=O)CN(c1cc(Cl)ccc1OC)S(C)(=O)=O	2.02%
COc1ccc(-c2cc(C(F)(F)F)nc(SCC(=O)Nc3cc(C)on3)n2)cc1	20%
Cc1ccc2nc(-c3ccc(NC(=O)COCC(=O)O)cc3)sc2c1	11.9%
COc1cc(/C=C/c2ccc3c(Br)cc(Br)c(O)c3n2)ccc1O	4.06%
CCOc1ccc(-n2ccnc(SCC(=O)Nc3ccc(OC)cc3OC)c2=O)cc1	17.1%
O=C(COc1cccc(Br)c1)Nc1ccc(N2CCOCC2)cc1N1CCOCC1	-4.35%
Cc1ccc(S(=O)(=O)NCCn2nc(C)cc2C)cc1	13.6%
COc1ccc(COc2cccc3ccc(C)nc23)cc1F	20%

SMILES	hERG current change (%, negative = inhibition) at 1uM
COc1ccc(CCC(=O)N/N=C\c2cccs2)cc1	10.3%
CCCN(c1ccc(OCC)cc1)S(=O)(=O)c1ccc2c(c1)NC(=O)CO2	13.5%
CCOc1ccccc1C(=O)NCCC(=O)O	17.2%
CCCCN1CC(C(=O)NCc2ccc(C)cc2)CC1=O (stereo not drawn)	-4.05%
CCN(CC)S(=O)(=O)c1ccc(C)c(NC(=S)NC2CCCCC2)c1	8.1%
O=C(Cn1cnc([N+](=O)[O-])n1)c1ccc(O)c(O)c1	21.5%
Cc1ccc(OCCC(=O)OC(C)C(=O)Nc2ccc(Cl)cn2)cc1 (stereo not drawn)	-14.7%
CC(=O)c1c(N2CCOCC2)nc2ccc(Cl)cc2c1-c1ccccc1	6.99%
O=C(NCc1ccco1)C1CCCN1C(=O)Nc1ccccc1Cl (stereo not drawn)	10.8%
CCOc1ccc(Cc2c(C)[nH]c3ccc(C(=O)O)cc3c2=S)cc1	13.2%
COc1ccc(NC(=O)Nc2ccc3c(c2)CCC3)c(OC)c1	6.46%
CC(C)c1ccc(C(=O)CSc2n[nH]c(-c3ccncc3)n2)cc1	7.16%
CC(SCc1ccccc1)C(=O)N/N=C/c1ccc2c(c1)OCO2 (stereo not drawn)	9.74%
CN(C)CCCN(C(=O)c1cccc(N2C(=O)CCC2=O)c1)c1nc2cc3c(cc2s1)OCO3.Cl	6.19%
Cn1cccc1C(=O)c1ccc(Cl)cc1Cl	7.82%
O=C1c2cccc(O)c2C(=O)c2c(O)cccc21	3.17%
COc1cc(NC(=O)c2ccco2)c(OC)cc1NC(=O)CCC(=O)Nc1cc(C)ccc1C	1.61%
CN(c1cccc2cccnc12)S(=O)(=O)c1ccccc1	15.2%
O=C(O)/C=C\C(=O)Nc1ccccc1C(=O)NC1CCCCC1	16.4%
